Laboratory results as given in PubChem BioAssay AID1508623 (National Center for Advancing Translational Sciences (NCATS), 2021).
Out of some 48,000 compounds screened, about 450 (0.94%) were called active. Roughly 19% stayed inconclusive and do not appear here. The call rests on the fitted dose curve; in most records, active means well fitted inhibition curve with a large enough effect; inconclusive means small, poorly fitted or top-dose-only effect; inactive means no such curve, though single readings can be large or run the other way. The list shows a part of the results.

Assay: Primary qHTS for Identification of Small Molecule Inhibitors of Huntingtin Promoter Activity; further: nearly all actives have a fitted effect of over 50% in size
Details: HEK293 HTT promoter firefly luciferase reporter (activity 0% = vehicle and -100% = no light), 24 h; series mostly up to 57.5 µM; activity change, negative = inhibition: at the top concentration
How it was run: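 HEK293 Fluc reporter, 2,500 cells/well, 24 h pre-culture; cpds up to 57.5 uM final, 24 h 37 degrees C; Dual-Glo, 10 min RT; normalized vehicle = 0%, zero RLU = -100%.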

Activity change, negative = inhibition, inactive:
Cc1ccc(NC(=O)c2oc3ccccc3c2NC(=O)c2cc3ccccc3o2)cc1 1.52%
O=C(CSc1cn(CCNC(=O)c2c(F)cccc2F)c2ccccc12)Nc1ccc2c(c1)OCCO2 -16.5%
CC(C)CC(NS(=O)(=O)c1ccc2c(c1)oc(=O)n2C)C(=O)NCCc1ccc(Cl)cc1 (stereo unspecified) -7.05%
COC(=O)c1ccc(NC(=O)c2cc(S(=O)(=O)N3CCc4ccccc43)cn2C)cc1 -10.3%
CCCc1nc(C)c2c(=O)[nH]c(-c3cc(S(=O)(=O)N4CCN(CC)CC4)ccc3OCC)nn12 2.36%
Cc1cc(C)cc(NS(=O)(=O)c2ccc3[nH]cc(C(=O)N4CCCC4)c(=O)c3c2)c1 -9.86%
CCOc1ccccc1NC(=O)Cn1cnc2onc(-c3ccc(F)cc3)c2c1=O -11.2%
O=C(OCc1cc(=O)n2nc(C3CC3)sc2n1)c1ccc(F)cc1 18.6%
CC1=C(C(N)=O)C(c2cccc(Br)c2)n2nc(SCc3ccccc3)nc2N1 (stereo unspecified) -5.17%
O=C(NCc1cccnc1)C1CCN(Cc2cc3ccccc3n2Cc2cccc(Cl)c2)CC1 -23.3%
CCCCc1nnc(SCc2cc(=O)c3cc(C(=O)OCC)ccc3[nH]2)n1C 13.2%
Cc1cc(NC(=O)C(C)C)cc(-c2nc3ncccc3o2)c1O -8.1%
Cc1ccc2nc(-c3ccc(O)cc3)c(Nc3ccc4c(c3)OCO4)n2c1 8.13%
CC(C)N(Cc1ccccc1)C(=O)CCS(=O)(=O)c1cc2c(cc1Cl)NC(=O)CO2 -18.6%
Cc1cc(C)n2nc(SCC(=O)Nc3ccccc3)nc2n1 8.28%
Cc1cc2nc(-c3cc(NC(=O)c4cc5ccccc5o4)ccc3Cl)oc2cc1C 21%
COc1cccc(C(=O)Nc2ccccc2OCc2cc(=O)n3cc(C)ccc3n2)c1 -0.424%
CCCNC(=O)C1CCN(S(=O)(=O)c2ccc3c(c2)CCCN3C(C)=O)CC1 -5.44%
Cc1ccccc1OCc1nnc(SCc2cc(=O)c3ccccc3[nH]2)n1C -8.6%
COc1ccc(N(CC(=O)NCCc2cccc(C)c2)S(=O)(=O)c2c(C)nn(C)c2C)cc1 -15%
COc1ccccc1N1CCN(C(CNC(=O)C(=O)NCCCN(C)C)c2cccnc2)CC1 (stereo unspecified) -2.03%
CCOC(=O)C1=C(CS(=O)(=O)c2c(C)cc(C)cc2C)NC(=O)NC1c1cccc(OC)c1 (stereo unspecified) -14.7%
N#Cc1c(NC(=O)c2cc3nc(-c4ccc(Br)cc4)cc(C(F)(F)F)n3n2)sc2c1CCCC2 -1.78%
O=C1CC(c2ccccc2C(F)(F)F)c2c(c3ccccc3[nH]c2=O)O1 (stereo unspecified) -9.99%
COC(=O)c1cccc(Nc2c(-c3ccc(O)c(OC)c3)nc3nc[nH]n23)c1 -10.6%
CCOc1ccc(-c2c(C)nn3c(C)c(C(=O)Nc4ccccc4C(=O)OC)cnc23)cc1OCC -20.8%
Cn1c(=O)c2c(ncn2CC(O)CO)n(C)c1=O (stereo unspecified)
COCc1cc(C)nc2sc3c(c12)NC(c1ccc(O)cc1)N(c1ccc(OC)cc1)C3=O (stereo unspecified) -2.87%
CCOc1ccc(NC(=O)C2Cc3ccccc3N2C(=O)c2ccccc2)cc1 (stereo unspecified) -15%
COc1ccccc1NC(=O)Cc1c(C(=O)O)[nH]c2ccc(Cl)cc12 -0.382%
Cc1ccc(-c2nc3cc(C(C)C)ccc3o2)cc1NC(=O)c1cccs1 9.76%
COCCn1c(C)cc(O)c(C(c2ccccc2)N2CCN(C)CC2)c1=O (stereo unspecified) -14%
Cc1cccc(NC(=O)CSc2nc3ccc(NC(=O)c4ccco4)cc3s2)c1 -5.36%
COc1cccc(NC(=O)CCNS(=O)(=O)c2ccc(Br)s2)c1 -7.26%
COc1ccc(CNC(=O)Cc2csc3ccccc23)cc1OC -6.57%
CCc1nn(CC(=O)N2CCCCC2)c(=O)c2cc3sccc3n12 -13%
COc1cc(Br)c(/C=C(\C#N)c2nc3ccccc3[nH]2)cc1OC 52.3%
CCc1ccccc1NC(=O)C1CCC(CNS(=O)(=O)c2ccc3c(c2)CC(C)N3C(C)=O)CC1 (stereo unspecified) -16.4%
Cc1cn2c(=O)c(S(=O)(=O)NCCc3ccccc3)c(C)nc2s1 -5.3%
COc1ccc2nc(NC(=O)c3nc(SCc4ccc(F)cc4)ncc3Cl)sc2c1 -7.46%
CCOc1ccc(-c2nnc(SCC(=O)NCCC(C)C)nc2-c2ccc(OCC)c(OC)c2)cc1OC -23.5%
Cc1ccc(N2C(=O)CSC23C(=O)N(CC(=O)NC2CCCCC2)c2ccccc23)cc1 (stereo unspecified) -13%
CC(C)CN1CCc2nc(N3CCN(c4ncccn4)CC3)ncc2C1 7.28%
COc1cccc(C(=O)NCC(c2ccc(N(C)C)cc2)N2CCCC2)c1OC (stereo unspecified) 5.59%
COc1ccc2nc(SCC(=O)c3c(C)[nH]c4ccccc34)nc(C)c2c1 -1.21%
CCOc1ccc(OCC)c(NC(=O)C2CCN(S(=O)(=O)c3ccc(Br)s3)CC2)c1 2.19%
O=C(Nc1ccc(F)cc1)[C@H](CSCc1ccccc1)N1Cc2ccccc2C1=O -18.3%
Cc1ccc(S(=O)(=O)c2nnn3c2nc(N2CCN(c4ccc(F)cc4)CC2)c2cc(Cl)ccc23)cc1C 8.51%
COc1cccc(-n2c(=O)c3c(C)c(C(=O)N(C)C)sc3n(CC(=O)NCCc3ccc(OC)c(OC)c3)c2=O)c1 0.188%
NC(=O)c1cccnc1
CCc1ccc(NC(=O)CSc2nc3nccnc3c(=O)n2CCc2c[nH]c3ccccc23)cc1 -9.4%
COc1ccc(-c2nc(C)c(CCNC(=O)Cc3ccc(F)cc3)s2)cc1OC -17.5%
COc1cc2ccccc2cc1C(=O)Nc1cccc(-c2nc3cc(C)c(C)cc3o2)c1C -15.5% [at 11.5 µM]
COc1ccc2oc(=O)c(C(=O)NCCc3c(C)[nH]c4c(Cl)cccc34)cc2c1 -0.443%
Cc1nc2nc(NCc3cccc(Br)c3)[nH]n2c(=O)c1Cc1ccccc1 -6.22%
CCc1ccccc1NC(=O)N1CCN(c2cc(-c3noc(C)n3)ccc2C)CC1 -15.5%
Cc1ccc(CN(C(=O)COc2cccc([N+](=O)[O-])c2)c2ccccn2)o1 -27%
CCC(=O)N1CCc2cc(Br)cc(S(=O)(=O)N3CCCC(C(=O)Nc4ccc(OC)c(Cl)c4)C3)c21 (stereo unspecified) -0.129%
Cn1nnnc1SCCNCc1ccc(F)cc1 -8.11%
CCOc1ccc(CNC(=O)CCC(=O)N2CC(C)Sc3ccccc32)cc1 (stereo unspecified) -19.2%
O=C(CSc1nccn1-c1ccccc1)Nc1nc2ccccc2s1 0.198%
